Among all 340,000 compounds or so, about 530 (0.16%) were called active. The inconclusive results got no clear call from the source; some entries with a clear call stand among them for comparison. Rule as the data show it: active = activity change below about -80%; inconclusive = between about -30% and that limit; inactive = weaker than that.
assay: Small Molecules that selectively kill Giardia lamblia: qHTS; details: Giardia lamblia trophozoite viability; at 7.66 µM; stronger effect = lower value;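 also: parasites exposed to compound for two days anaerobically before the ATP read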
How it was run: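 Killing of trophozoites was scored by loss of ATP luminescence after a 48 hrs anaerobic exposure to compounds at 37 deg C, using 100 cells per well.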
% is scaled to controls: 0 for no effect and ±100 for the full control effect.

**Q.** For `CCCn1c(=O)n(C)c(=O)c2c(SCC(=O)NC34CC5CC(CC(C5)C3)C4)nc(CC(C)C)nc21`, which activity change is on record?
**A.** Its activity change is inactive: -20.9%.

**Q.** Which activity change does the source give for `CCOC(=O)c1sc(C)c2c1NC(c1ccc(Cl)cc1)NC2=O` (stereo not given) here?
**A.** The activity change was inconclusive: -31.7% [inhibitor].

**Q.** For `O=C(CSc1nc2nn(-c3ccccc3)c(=O)c-2c2n1CCCCC2)Nc1ccc(F)c(F)c1`, which activity change is on record?
**A.** The activity change was inactive: 20.7%.

**Q.** For `COc1ccc(C(CNC(=O)C(CCSC)NC(=O)c2ccccc2Cl)N2CCCC2)cc1` (stereo not given), which activity change is on record?
**A.** Its activity change is inconclusive: -31.3% [inhibitor].

**Q.** With `COc1ccc(C(=O)c2c(-c3ccc(OC)cc3)oc3ccccc23)cc1` as the molecule, how does the activity change read?
**A.** Its activity change is inconclusive: -32.9% [inhibitor].

**Q.** Which activity change does the source give for `Cc1c(C)c([N+](=O)[O-])c(C)c(C)c1N` here?
**A.** Its activity change is inactive: 19.6%.

**Q.** For `O=C(Nc1ccccn1)c1ccc(-c2ccccc2)cc1`, which activity change is on record?
**A.** The activity change was inconclusive: -54.9% [inhibitor].

**Q.** With `O=[N+]([O-])c1ccc(O)c(Nc2c([N+](=O)[O-])ccc3nonc23)c1` as the molecule, how does the activity change read?
**A.** Its activity change is inconclusive: -37.7% [inhibitor].

**Q.** With `Clc1ccc2nc(CN3CCCc4ccccc43)cn2c1` as the molecule, how does the activity change read?
**A.** Its activity change is inactive: 6.36%.

**Q.** With `CN(C)CC(CCC(CN(C)C)C(=O)c1ccccc1)C(=O)c1ccccc1` (stereo not given) as the molecule, how does the activity change read?
**A.** The activity change was inactive: 2.82%.

**Q.** For `O=[N+]([O-])c1nn(-c2ccccc2)n(O)c1=NC1CCN(Cc2ccccc2)CC1`, which activity change is on record?
**A.** Its activity change is active: -85.4%.

**Q.** For `CC(C)[C@H](NC(=O)OC(C)(C)C)c1nnc(SCc2cccc(F)c2)o1`, which activity change is on record?
**A.** Its activity change is inactive: 7.27%.

**Q.** Which activity change does the source give for `O=C(CSc1nc2ccccc2nc1N1CCCC1)Nc1ccc(F)cc1` here?
**A.** Its activity change is inconclusive: -40.3% [inhibitor].

**Q.** With `Cc1cc(C)n(-c2cc(N3CCN(S(=O)(=O)c4ccc(C)c(C)c4)CC3)ccc2[N+](=O)[O-])n1` as the molecule, how does the activity change read?
**A.** The activity change was inactive: 14.8%.

**Q.** With `Cn1ccsc1=NC(=O)c1ccc([N+](=O)[O-])o1` as the molecule, how does the activity change read?
**A.** Its activity change is active: -93.5%.

**Q.** With `Brc1ccc2ncc3ccccc3c2c1` as the molecule, how does the activity change read?
**A.** The activity change was inactive: -8.42%.

**Q.** With `CCCN(CCC)c1nc(-c2ccccn2)nc2ccccc12` as the molecule, how does the activity change read?
**A.** Its activity change is inconclusive: -33.3% [inhibitor].

**Q.** Which activity change does the source give for `COc1cc2c(cc1OC)CN(C(=O)CN(C)S(=O)(=O)c1ccc(NC(C)=O)cc1)CC2` here?
**A.** Its activity change is inactive: -2.42%.

**Q.** For `Cc1cc(=O)oc2cc(OCC(=O)N3CC(=O)Nc4ccccc43)c(Cl)cc12`, which activity change is on record?
**A.** The activity change was inactive: -3.06%.

**Q.** For `CSc1cccc(CN2CCC(CO)(Cc3ccccc3)CC2)c1`, which activity change is on record?
**A.** Its activity change is inconclusive: -30.7% [inhibitor].

**Q.** For `O=C(Nc1nc2c(F)cccc2s1)c1ccc([N+](=O)[O-])o1`, which activity change is on record?
**A.** The activity change was active: -96.6%.

**Q.** With `CCC(=O)Nc1cc(C)c(NC(=O)C23CC4CC(CC(C4)C2)C3)cn1` as the molecule, how does the activity change read?
**A.** The activity change was inconclusive: -34.2% [inhibitor].

**Q.** Which activity change does the source give for `NC(=O)c1cc(S(=O)(=O)NCc2cccs2)cs1` here?
**A.** The activity change was inconclusive: -39.3% [inhibitor].

**Q.** For `CCOC(=O)C(NC(=O)c1ccc(F)cc1)(Nc1sc2c(c1C(N)=O)CCC2)C(F)(F)F` (stereo not given), which activity change is on record?
**A.** The activity change was inconclusive: -31% [inhibitor].

**Q.** For `Cc1ccc(S(=O)(=O)N2[C@@H](c3cccc(Cl)c3)C(C(=O)O)=CC[C@H]2c2ccc3c(c2)OCO3)cc1`, which activity change is on record?
**A.** Its activity change is inconclusive: -44.9% [inhibitor].

**Q.** Which activity change does the source give for `COc1cccc(OC)c1/C=C/C(=O)NC1CCCCC1` here?
**A.** The activity change was inconclusive: -44.2% [inhibitor].

**Q.** Which activity change does the source give for `Cc1c(C(=O)N2CCN(C(c3ccccc3)c3ccccc3)CC2)oc2ccccc12` here?
**A.** The activity change was inconclusive: -34.9% [inhibitor].

**Q.** With `C/C(=N\NC(=O)c1ccc(Br)cc1)c1cccnc1` as the molecule, how does the activity change read?
**A.** The activity change was inconclusive: -35.3% [inhibitor].

**Q.** Which activity change does the source give for `O=C(Nc1ccc(N2CCCCC2)cc1)c1ccc2ccccc2n1` here?
**A.** Its activity change is inconclusive: -30.7% [inhibitor].

**Q.** For `Cc1ccc(OCC(=O)NC(C)c2ccccc2)c([N+](=O)[O-])n1` (stereo not given), which activity change is on record?
**A.** The activity change was inconclusive: -37.2% [inhibitor].

**Q.** Which activity change does the source give for `COc1ccc(C(CNC(=O)C(C)(C)Oc2ccc(Cl)cc2)N2CCCC2)cc1` (stereo not given) here?
**A.** Its activity change is inactive: 0.649%.

**Q.** Which activity change does the source give for `COc1cc(-c2c(C#N)c(N)nc3[nH]c(=S)[nH]c(=O)c23)ccc1O` here?
**A.** Its activity change is inconclusive: -43.9% [inhibitor].

**Q.** Which activity change does the source give for `O=C(NCC(c1ccc(F)cc1)N1CCOCC1)c1ccc([N+](=O)[O-])o1` (stereo not given) here?
**A.** Its activity change is active: -101%.

**Q.** Which activity change does the source give for `CCOC(=O)N1CCN(CC(=O)Nc2c(C(=O)OC)[nH]c3ccc(Cl)cc23)CC1` here?
**A.** Its activity change is inactive: -1.99%.

**Q.** Which activity change does the source give for `Cn1cc([N+](=O)[O-])cc1-c1nc2ccccc2n1C` here?
**A.** The activity change was inconclusive: -39.6% [inhibitor].

**Q.** Which activity change does the source give for `Nc1ccccc1N=Cc1ccc(-c2cccc(Cl)c2)o1` here?
**A.** Its activity change is inactive: -14%.

**Q.** Which activity change does the source give for `CCN(C(=O)COC(=O)COc1ccccc1Cl)c1c(N)n(Cc2ccccc2)c(=O)[nH]c1=O` here?
**A.** The activity change was inactive: 18.1%.

**Q.** For `CC(=O)OCc1c(COC(C)=O)[n+](=O)c2ccccc2n1[O-]`, which activity change is on record?
**A.** The activity change was inconclusive: -76% [inhibitor].

**Q.** Which activity change does the source give for `Cc1nc(-c2ccc(C(=O)Nc3ccccc3F)cc2)cs1` here?
**A.** Its activity change is inconclusive: -42.3% [inhibitor].

**Q.** With `CCCO/N=C1/C(=O)N(c2ccccc2)c2ccccc21` as the molecule, how does the activity change read?
**A.** Its activity change is inconclusive: -41.9% [inhibitor].

**Q.** For `Cc1ccc(Nc2nc(=O)c3cc([N+](=O)[O-])ccc3s2)cc1`, which activity change is on record?
**A.** The activity change was inconclusive: -56% [inhibitor].

**Q.** Which activity change does the source give for `CC[C@]1(C(=O)OC)[C@H]2C(=O)N(C)C(=O)[C@H]2[C@H]2CN(C)C(=NC)N21` here?
**A.** Its activity change is inconclusive: -47% [inhibitor].

**Q.** Which activity change does the source give for `O=c1c2sc3nc(N4CCOCC4)c4c(c3c2ncn1-c1ccccc1)CCCC4` here?
**A.** Its activity change is inactive: 15.9%.

**Q.** Which activity change does the source give for `CCCOc1ccc(CC(=O)NNC(=S)Nc2ccccc2)cc1Br` here?
**A.** Its activity change is inactive: -2.67%.

**Q.** With `Cc1ccc(OCCSc2nc3ccccc3n2CC(=O)O)cc1C` as the molecule, how does the activity change read?
**A.** Its activity change is inconclusive: -37.9% [inhibitor].

**Q.** With `CC(=O)OC1COC(n2ccc3cc([N+](=O)[O-])ccc32)C(OC(C)=O)C1OC(C)=O` (stereo not given) as the molecule, how does the activity change read?
**A.** Its activity change is inconclusive: -34.5% [inhibitor].

**Q.** For `COc1ccccc1NC(=S)NCc1ccccc1Cl`, which activity change is on record?
**A.** Its activity change is inactive: 9.29%.

**Q.** For `CCC(Oc1ccccc1)C(=O)Nc1ccc(S(=O)(=O)Nc2ncccn2)cc1` (stereo not given), which activity change is on record?
**A.** The activity change was inconclusive: -33.3% [inhibitor].

**Q.** With `COc1ccc(Cc2nc3ccc(C(=O)NCc4cc(C)no4)cc3o2)cc1OC` as the molecule, how does the activity change read?
**A.** The activity change was inactive: -5.15%.

**Q.** Which activity change does the source give for `CC(=O)NC1C(=O)N=C(SCC(=O)Nc2sc3c(c2C#N)CCCCCC3)NC1=O` (stereo not given) here?
**A.** Its activity change is inconclusive: -34.1% [inhibitor].

Source: PubChem BioAssay AID540267 (National Center for Advancing Translational Sciences (NCATS), 2011)
